Experimental data as given in PubChem BioAssay AID743255 (National Center for Advancing Translational Sciences (NCATS), 2014).
Values joined by “and” are separate entries in the source; they are usually repeats but may differ in a detail not shown here. Equal values may be shown once. About 910 (0.23%) of roughly 390,000 compounds were called active. Roughly 5% stayed inconclusive and do not appear here. Calls follow the shape of the dose curve; as a rule, active = well fitted inhibition curve with a large enough effect; inconclusive = small, poorly fitted or top-dose-only effect; inactive = no such curve, though single readings can be large or run the other way. This is a selection; strong and weak results do not stand in their true shares. Where a structure was tested more than once in an assay, its records may differ in their call.

The compounds below were run against Ubiquitin carboxyl-terminal hydrolase 1 (Homo sapiens) (UniProt O94782) (assay: Inhibitors of USP1/UAF1: Primary Screen). Conditions: recombinant USP1/UAF1, Ub-Rhodamine cleavage fluorescence; activity change, negative = inhibition: at 57.1 µM (top of the series).
In short: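 High-throughput fluorogenic screen: 1nM USP1/UAF1 complex, Ub-Rho substrate 150nM final, 50mM HEPES pH 7.8 with 0.5mM EDTA, 0.1 mg/ml BSA, 1mM TCEP and 0.01% Tween-20.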
% is scaled to controls: 0 for no effect and ±100 for the full control effect; potency is read from the fitted curve at half-maximal effect.
Also: nearly all actives have a fitted effect of over 60% in size.

Chain of UniProt O94782 (O94782 whole entry, looked up): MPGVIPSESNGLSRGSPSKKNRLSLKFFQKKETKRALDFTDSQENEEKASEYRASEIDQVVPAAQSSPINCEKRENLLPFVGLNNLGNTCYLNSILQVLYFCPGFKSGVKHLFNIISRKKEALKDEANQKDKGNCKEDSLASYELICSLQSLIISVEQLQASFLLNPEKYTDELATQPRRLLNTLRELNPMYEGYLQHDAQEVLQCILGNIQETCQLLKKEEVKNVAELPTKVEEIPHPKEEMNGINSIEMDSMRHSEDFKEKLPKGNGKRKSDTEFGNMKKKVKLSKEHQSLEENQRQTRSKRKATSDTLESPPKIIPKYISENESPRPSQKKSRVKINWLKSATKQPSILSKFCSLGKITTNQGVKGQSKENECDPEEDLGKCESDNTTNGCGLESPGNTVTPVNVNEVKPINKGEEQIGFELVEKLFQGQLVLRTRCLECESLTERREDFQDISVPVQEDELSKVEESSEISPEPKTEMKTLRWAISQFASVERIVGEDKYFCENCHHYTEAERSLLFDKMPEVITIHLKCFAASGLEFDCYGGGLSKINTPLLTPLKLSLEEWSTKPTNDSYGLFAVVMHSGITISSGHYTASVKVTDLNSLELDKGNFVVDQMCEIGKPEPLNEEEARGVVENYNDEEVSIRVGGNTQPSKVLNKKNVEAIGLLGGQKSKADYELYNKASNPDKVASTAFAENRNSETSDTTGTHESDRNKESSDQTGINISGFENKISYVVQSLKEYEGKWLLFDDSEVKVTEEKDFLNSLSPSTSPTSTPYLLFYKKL

SMILES	activity change, negative = inhibition	Potency
Cc1cc(C)cc(NC(=O)Cn2ncn3c(cc4ccccc43)c2=O)c1	inactive: 3.94%	–
O=C(COCc1cc(-c2ccc3c(c2)OCO3)on1)N1CCN(c2cccc(Cl)c2)CC1	inactive: -4.72%	–
CCc1nonc1NC(=O)c1oc2ccc(C)cc2c1C	inactive: -3.06%	–
CCN(CC)c1ccc2c(c1)oc(=O)c1c(Cl)cc(=O)oc12	inactive: 250%	–
O=C1C(Cl)=C(Nc2ccc3cn[nH]c3c2)C(=O)c2ccccc21	–	active: 15.8 µM
C[n+]1ccccc1/C=N/O	inactive: -24.7%	–
COc1ccc2c(c1)cc1c(=O)n(CC(=O)NCCCOC(C)C)nc(C)n12	inactive: -17.8%	–
CCOC(=O)[C@@H]1[C@H]2COc3ccccc3[C@H]2N2C(=O)N(c3ccc(OC)cc3)C(=O)[C@]12C	inactive: -25.6%	–
CC(=O)C[C@@H](O)CC(=O)[C@H]1OC(=O)CCCCCCc2ccccc21	inactive: -4.91%	–
COc1ccc(CNC(=O)O[C@@H]2C[C@H]3C(=O)N(c4ccccc4)C(=O)[C@H]3[C@@]3(CN(S(=O)(=O)c4ccc(C)cc4)C[C@H]3C)[C@@H]2O)cc1OC	inactive: 79.6%	–
N#CC1=C2SCN(C3CCCCC3)CN2C(=O)CC1c1c(F)cccc1Cl (centres undefined)	–	active: 31.6 µM
CCN1C(=O)[C@H]2[C@@H](c3ccc(-c4cccc(Cl)c4)c(OC)c3)N3CCCC[C@@]3(C(=O)OC)[C@H]2C1=O	inactive: -28.7%	–
O=C(C[C@@H]1C/C=C\CC[C@@H](Cc2ccc(F)cc2)C(=O)OC[C@@H]2CCCN2C1=O)N[C@H](CO)Cc1ccccc1	inactive: -5.38%	–
O=C(C[C@H]1C/C=C\CC[C@H](Cc2ccc(F)cc2)C(=O)OC[C@H]2CCCN2C1=O)N[C@H](CO)Cc1ccccc1	inactive: -14.5%	–
O=C(NCc1nc2ccccc2[nH]1)C1=C[C@H](c2ccccc2)C[C@H](OCc2ccc(CO)cc2)O1	inactive: -3.88%	–
O=C(NC1(O)C(=O)c2ccccc2C1=O)c1c(Cl)cccc1Cl	–	active: 28.2 µM
O=C1C=CC(=O)c2c(O)c(N3CCN(CCOCCO)CC3)c(Br)c(O)c21	–	active: 2 µM
Cc1ccc(NC(=O)c2oc3ccc(S(=O)(=O)N4CCC5(CC4)OCCO5)cc3c2C)cc1C	inactive: 0.91%	–
C[C@H]1CN([C@@H](C)CO)C(=O)CCCn2nncc2CO[C@H]1CN(C)C(=O)Nc1ccc2c(c1)OCO2	inactive: 7.95%	–
O=C(NCc1ccccc1)C1CCCN(S(=O)(=O)c2cccc3nsnc23)C1 (centres undefined)	inactive: -18%	–
C[n+]1ccc(/C=C/c2c[nH]c3ccc(F)cc23)cc1	–	active: 28.2 µM

SMILES	activity change, negative = inhibition	Potency
CCCN1C(=O)C(Cc2nc3ccccc3c(=O)n2-c2ccccc2)c2cc(C)ccc21 (centres undefined)	inactive: -2.36%	–
CCOC(=O)/C=c1\s/c(=C\c2c(OC)ccc3ccccc23)c(=O)n1CC(=O)NCC1CCCO1 (centres undefined)	inactive: -8.94%	–
C[C@H]1CN([C@@H](C)CO)C(=O)CCCn2nncc2CO[C@@H]1CN(C)Cc1cccc2c1OCCCO2	inactive: -23.2%	–
COc1ccc(C)cc1NS(=O)(=O)c1ccc2c(c1)n(C)c(=O)n2C	inactive: -14.6%	–
COc1ccc(OC)c(S(=O)(=O)Nc2ccc3c(c2)n(C)c(=O)n3C)c1	inactive: -20.3%	–
Cc1cc(O)c(C(C)C)cc1N=Cc1ccc(N(C)C)cc1	–	active: 31.6 µM
CCNc1ccc(Br)cc(C(=O)/C=C/c2ccc(Cl)cc2)c1=O	–	active: 31.6 µM
Cc1ccc(NC(=O)Cn2cc(C(=O)C3CC3)c3ccccc32)c(C)c1	inactive: 5.12%	–
CCOc1cc(/C=C2/NC(=O)NC2=O)cc([N+](=O)[O-])c1O	inactive: -1.68%	–
CC1OC(CC(=O)O)CC2=C1C(=O)c1c(O)cccc1C2=O (centres undefined)	–	active: 11.2 µM
CCO[C@H]1c2c(ccc3ccc(=O)oc23)OC(C)(C)[C@H]1O	inactive: -17.6%	–
COc1ccc(-c2cc(C(=O)Nc3cccnc3Cl)no2)cc1OC	inactive: -5.93%	–
CCN(CCCNC(=O)Cn1ncc2c([nH]c3ccc(C)cc32)c1=O)c1cccc(C)c1	inactive: -7.65%	–
COC(C[C@H]1O[C@H]1C(=O)[C@H](C)OCc1ccccc1)OC	inactive: -18.5%	–
Nc1c(C(=O)N/N=C/c2ccccc2Cl)oc2nc(-c3ccccc3)cc(-c3ccco3)c12	inactive: 73.5%	–
Cc1ccc(S(=O)(=O)N2C[C@@H]3[C@H]4CC[C@H](C4)[C@@H]3[C@@H](C)[C@@H]2c2ccn(Cc3ccccc3)c2)cc1	inactive: -9.24%	–
CC1=Nc2ccccc2/C1=C/c1sc(=S)n(-c2cccc(C(=O)O)c2)c1O	–	active: 28.2 µM
CCOC(=O)c1cc2c(=O)n3ccccc3nc2n(Cc2ccco2)c1=NC(=O)c1cccc(OC)c1	inactive: 31.8%	–
COc1cccc(NC(=O)N(C)C[C@@H]2OCc3cnnn3CCCC(=O)N([C@@H](C)CO)C[C@H]2C)c1	inactive: -21%	–
CCOC(=O)C1CCN(S(=O)(=O)c2ccc3c(c2)N(C)C(=O)CC(=O)N3C)CC1	inactive: -20.9%	–
CC(C)(C)OC(=O)C[C@@H]1C/C=C\C[C@@H](CC(=O)N(CCO)Cc2ccccc2)C(=O)N[C@H](C(C)(C)C)COC1=O	inactive: -25.1%	–

SMILES	activity change, negative = inhibition	Potency
C[C@H](NC(=O)c1[nH]cnc1C(=O)Nc1nccs1)c1ccccc1	inactive: -16.1%	–
COc1cc2c(=O)n(CCC(=O)NCC3CCCO3)c(=O)n(CC(=O)Nc3ccc(C)c(C)c3)c2cc1OC (centres undefined)	inactive: 0.414%	–
COc1ccc(CCCc2nnc(SCC(=O)Nc3ccc(OC)cc3)o2)cc1	–	inactive
CCOc1ccc(NC(=O)C2CCN(c3nnc(-n4c(C)ccc4C)s3)CC2)cc1	inactive: 32.8%	–
CCOC(=O)C1CCN(S(=O)(=O)c2csc(C(N)=O)c2)CC1	inactive: -6.01%	–
C#CCNC(=O)C1=C[C@H](c2ccc(Br)cc2)[C@@H](CCCO)[C@H](OCC)O1	inactive: -11.1%	–
O=C(Cn1ncc2c([nH]c3ccccc32)c1=O)NCC1CCN(Cc2ccc(F)cc2)CC1	inactive: -31.1%	–
C[n+]1ccc(/C=C/c2c[nH]c3ccccc23)cc1	–	active: 28.2 µM
CC(=O)n1cc([C@@H]2C=C(C(=O)N3CCN(Cc4ccc5c(c4)OCO5)CC3)O[C@H](OCc3ccc(CO)cc3)C2)c2ccccc21	inactive: -7.82%	–
C=C(C)C(=O)Nc1cccc(C2=NOC3(C2)C[C@H](C(N)=O)N(C(=O)C(c2ccccc2)c2ccccc2)C3)c1 (some centres undefined)	inactive: 37.1%	–
O=C1CCCC2=C1Sc1ccc(Cl)cc1N2	inactive: 318%	–
C=CC[C@H](CC(=O)N[C@H](CO)Cc1ccccc1)C(=O)N[C@H](COC(=O)[C@@H](CC=C)Cc1ccc(F)cc1)Cc1c[nH]c2ccccc12	inactive: -18.6%	–
COc1ccc(S(=O)(=O)N(C)C[C@@H]2OCc3cnnn3CCCC(=O)N([C@H](C)CO)C[C@H]2C)cc1	inactive: 2.94%	–
CC1=Nc2ccccc2/C1=C\c1nc(-c2ccc(F)cc2)oc1O	–	active: 28.2 µM
C=CC[C@@H](CC(=O)N[C@H](CO)Cc1ccccc1)C(=O)N[C@H](COC(=O)[C@H](CC=C)CC(=O)OC(C)(C)C)Cc1c[nH]c2ccccc12	inactive: -14.4%	–
Cc1ccc(Cl)cc1NC1=C/C(=N\S(=O)(=O)c2cccs2)c2ccccc2C1=O	–	active: 2.24 µM and active: 3.16 µM
CC(C)(C)OC(=O)C[C@@H]1C/C=C\C[C@@H](CC(=O)N[C@@H](CO)Cc2ccccc2)C(=O)N2CCC[C@H]2COC1=O	inactive: -23.6%	–
CCc1ccc(NC(=O)Cn2ncn3c(cc4ccccc43)c2=O)cc1	inactive: -13.5%	–
CCN1CCN(Cc2ccc(NC(=O)c3ccc(C)c(NC(=O)c4c[nH]c5cc(C(F)(F)F)ccc5c4=O)c3)cc2C(F)(F)F)CC1	inactive: -12.3%	–
COC(=O)c1cc(S(=O)(=O)NCC2CCN(Cc3cccc(F)c3)CC2)cn1C	inactive: -7.9%	–
CCOc1ccccc1CNC(=O)CN1C(=O)CSc2ccc(S(=O)(=O)N3CCOCC3)cc21	inactive: -25.3%	–

SMILES	activity change, negative = inhibition	Potency
O=C1NNC(c2ccccc2)=N/C1=C\c1ccccc1Cl	–	active: 17.8 µM
C=CC[C@@H](CC(=O)N[C@H](CO)Cc1ccccc1)C(=O)N[C@@H](COC(=O)[C@H](CC=C)CC(=O)OC(C)(C)C)Cc1ccccc1	inactive: -17.7%	–
COC(C[C@H]1O[C@H]1[C@H](O)[C@H](C)OCc1ccccc1)OC	inactive: -0.472%	–
CCCc1nc2nc(C)c(NS(=O)(=O)c3ccc(F)cc3)c(=O)n2[nH]1	inactive: -17.2%	–
CNc1ccc2c3c(cccc13)C(=O)N(C)C2=O	inactive: 321%	–
C[C@H](CO)N1C[C@H](C)[C@@H](CN(C)C(=O)Nc2ccc(C(F)(F)F)cc2)Oc2c(NC(=O)c3ccncc3)cccc2C1=O	inactive: -18.2%	–
O=C(O)C1=C[C@H](c2csc3ccccc23)C[C@H](OCCCCO)O1	inactive: -14.1%	–
CCOC(=O)N(C)C[C@H]1OCc2cn(nn2)CCCC(=O)N([C@H](C)CO)C[C@@H]1C	inactive: -33.7%	–
OCC[C@@H]1C[C@H](O)[C@@H](O)[C@@]2(CCCc3ccccc3O2)O1	inactive: -25.9%	–
CCOC(=O)C1=C(C)NC(C)=C(C(=O)OCC)C1	–	inactive and active: 22.4 µM
CNc1c2c(nn1C)CCCC2	inactive: -17.5%	–
Cc1ccc(CNC(=O)c2cccc3c2C(=O)c2ccc(N4CCCCC4)cc2S3(=O)=O)cc1	inactive: 321%	–
O=C(C1=C[C@H](C2CCCCC2)C[C@H](OCc2ccc(CO)cc2)O1)N1CCOCC1	inactive: -15.1%	–
C[C@H](CO)N1C[C@H](C)[C@@H](CN(C)S(=O)(=O)c2ccc(-n3cccn3)cc2)OCc2cnnn2CCCC1=O	inactive: -24.4%	–
Cc1oc2c(cc(NS(=O)(=O)c3ccc(C(C)C)cc3)c3ccccc32)c1C(=O)O	–	inactive and active: 28.2 µM
CCCCn1c(SCc2ccc(C(=O)OC)o2)nc2cc(S(N)(=O)=O)ccc21	inactive: 49.6%	–
O=C(C[C@H]1C/C=C/CC[C@@H](Cc2ccc(F)cc2)C(=O)O[C@@H](c2ccccc2)CNC1=O)NCCO	inactive: 14.8%	–
O=C1C=C(N2CCOCC2)c2ccccc2C1=O	–	active: 3.16 µM
Cc1ccc2ncc(S(=O)(=O)c3ccccc3)c(N3CCCCC3C)c2c1 (centres undefined)	inactive: -18.4%	–
O=c1[nH]c2ccccc2nc1/C=C/c1ccc(F)cc1	inactive: 45.4%	–
COC(=O)CSc1nc2sc3c(c2c(=O)n1-c1ccc(C)cc1)CC(C(C)C)OC3 (centres undefined)	active: -81.6%	–
